Laboratory results: the supplement of paper PMC9433436
± gives the standard deviation of the averaged measurements. Whole data set: some 4,100 sequences, median “relative kcat/Km (krel) vs genomic leader AAAGAU” near 1.7, cut for the highest 2% near 6.5. The list shows a part of the results, in another mix than the full data.

Biological target: T1, E. coli RNase P holoenzyme (M1 P RNA + rnpA protein) (UniProt P0A7Y8)
T1 sequence: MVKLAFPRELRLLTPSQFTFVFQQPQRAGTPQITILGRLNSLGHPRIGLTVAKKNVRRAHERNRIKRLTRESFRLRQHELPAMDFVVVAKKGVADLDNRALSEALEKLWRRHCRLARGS
Assay: relative kcat/Km (krel) vs genomic leader AAAGAU (relative (reference leader = 1)); higher = faster RNase P cleavage
Procedure: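 HTS-Kin: a pool of ptRNA-Met (21C construct) with all 4096 combinations of 5' leader nucleotides N(-6) to N(-1) was processed in vitro by E. coli RNase P (P RNA + rnpA/C5 protein) under multiple-turnover conditions at 37 C, pH 8, 17.5 mM MgCl2. Residual substrate was Illumina-sequenced at several fractions reacted, and relative kcat/Km (krel) was computed by internal competition kinetics, calibrated to the genomic leader (AAAGAU = 1). The listed hexamer is the varied N(-6)..N(-1) leader (DNA letters), and it sits between a fixed 5' stem-loop flank (GCAUGCACGAAAGUGCGUGCUAUGAA) and the mature tRNA-Met starting GGCUACGUAGCUCAGUUGG. Two technical replicates are averaged.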

[1] = fraction of substrate reacted: ~9-10% (9.79% repeat 1, 9.1% repeat 2)
[2] = fraction of substrate reacted: ~13-16% (15.68% repeat 1, 13.17% repeat 2)
[3] = fraction of substrate reacted: ~26-29% (28.66% repeat 1, 26.4% repeat 2)

Row | Sequence | relative kcat/Km [1] | relative kcat/Km [2] | relative kcat/Km [3]
1 | TGAAAC | 2.95 ± 0.82 | 3.36 ± 0.47 | 3.84 ± 1.1
2 | GGTCCA | – | 0.644 ± 0.12 | 0.616 ± 0.12
3 | TTGACA | 1.6 ± 0.66 | 1.76 ± 0.59 | 2.5 ± 0.96
4 | CTAACA | 2.23 ± 1.2 | 0.934 ± 0.91 | 1.48 ± 0.23
5 | CTTCAC | 4.29 ± 0.98 | 4.25 ± 0.77 | 6.27 ± 2.5
6 | CCATCA | 1.63 ± 0.58 | 1.19 ± 0.24 | 2.09 ± 0.084
7 | TCCCTA | 3.22 ± 1.7 | 3.63 ± 0.34 | 4.34 ± 1.6
8 | GGCGTA | 1.37 ± 0.13 | 1.04 ± 0.12 | 1.84 ± 0.65
9 | ACCAAG | – | 0.763 ± 0.21 | 2.7 ± 0.17
10 | AAGACC | 1.93 ± 0.86 | 1.66 ± 0.33 | 1.17 ± 0.3
11 | TCCCGT | – | – | 1.86 ± 0.041
12 | CGATAT | 3.51 ± 0.4 | 5.17 ± 2.6 | 6.68 ± 3
13 | TGTCGA | 1.36 ± 0.56 | 3.38 ± 1.4 | 5.15 ± 1.8
14 | AGAATT | 2.18 ± 0.14 | 2.64 ± 0.62 | 3.39 ± 1.4
15 | CAGTTT | 2.13 ± 0.89 | 2.47 ± 0.055 | 3.36 ± 1.4
16 | ACGCTA | 1.05 ± 0.29 | 0.572 ± 0.17 | 1.74 ± 0.51
17 | GGTATT | 1.13 ± 0.4 | 1.56 ± 0.34 | 2.38 ± 1.3
18 | CTCGTT | 1.65 ± 0.2 | 2.23 ± 0.54 | 2.84 ± 1.1
19 | TTATTA | 2.64 ± 1.1 | 2.76 ± 0.31 | 3.84 ± 1.4
20 | AAACTG | – | – | 0.665 ± 0.063
21 | CAGAGG | – | – | 0.599 ± 0.16
22 | AAATAG | – | 0.682 ± 0.34 | 2.3 ± 0.061

Row | Sequence | relative kcat/Km [1] | relative kcat/Km [2] | relative kcat/Km [3]
23 | CGAAAT | 2.41 ± 0.32 | 2.34 ± 0.61 | 3.43 ± 1.1
24 | AGAATA | 2.57 ± 1.8 | 2.38 ± 0.23 | 2.95 ± 0.74
25 | AAAAGA | 0.711 ± 0.38 | 1.35 ± 0.16 | 1.71 ± 0.32
26 | ACACAC | 2.52 ± 0.29 | 2.93 ± 0.19 | 4.35 ± 1.7
27 | TCACGC | 2.24 ± 0.65 | 3 ± 0.93 | 4.05 ± 1.5
28 | GACTAA | 4.15 ± 1.9 | 5.64 ± 1.3 | 8.21 ± 3.3
29 | CCTCCA | 0.975 ± 0.64 | 1.57 ± 0.89 | 1.45 ± 0.32
30 | ATTTCC | 2.26 ± 0.4 | 1.937 ± 0.0092 | 2.73 ± 0.72
31 | GAACTG | – | – | 0.897 ± 0.51
32 | CTCCAG | 2.81 ± 1.9 | 2.34 ± 0.026 | 4.6 ± 1.3
33 | AACCAC | 2.99 ± 2 | 2.74 ± 0.52 | 3.88 ± 1
34 | CTTAAC | 2.53 ± 1.3 | 2.52 ± 0.82 | 3.93 ± 1.3
35 | CGTCAT | 2.843 ± 0.013 | 4.98 ± 1.9 | 6.96 ± 3.1
36 | TGGTGG | 0.0872 ± 0.032 | – | 1.21 ± 0.9
37 | AAAGCC | 0.793 ± 0.042 | 1.32 ± 0.27 | 1.39 ± 0.07
38 | CAACCA | 0.968 ± 0.62 | 0.886 ± 0.018 | 0.881 ± 0.39
39 | CCTGTA | 1.15 ± 1.1 | 1.34 ± 1.1 | 1.99 ± 1.1
40 | GCCCGT | – | – | 0.869 ± 0.63
41 | AGCGCT | 0.922 ± 0.52 | 0.773 ± 0.33 | 1.87 ± 0.74
42 | GAGCAA | 1.98 ± 0.29 | 2.27 ± 0.026 | 2.57 ± 0.78
43 | TAACAG | – | 1.33 ± 0.61 | 2.19 ± 0.52
44 | CCACAC | 1.98 ± 0.78 | 2.63 ± 0.9 | 3.97 ± 1.5

Row | Sequence | relative kcat/Km [1] | relative kcat/Km [2] | relative kcat/Km [3]
45 | CAGCAT | 2.79 ± 1.3 | 3.37 ± 0.47 | 4.04 ± 1.4
46 | ACCCTT | 2.26 ± 0.4 | 2.25 ± 0.33 | 3.38 ± 1.4
47 | TCGGCG | 1.25 ± 0.93 | – | –
48 | GAAGTC | – | 1.09 ± 0.24 | 0.855 ± 0.63
49 | GACCGC | 2.62 ± 0.33 | 3.08 ± 1.4 | 5.26 ± 2.2
50 | GAGAAA | 2.38 ± 1.1 | 3.13 ± 0.99 | 3.4 ± 0.98
51 | GTAAGG | – | – | 0.965 ± 0.083
52 | AGTGAC | 1.67 ± 0.59 | 2.65 ± 1.3 | 3.45 ± 1.4
53 | GGATGC | 1.44 ± 0.27 | 1.71 ± 0.79 | 2.74 ± 1
54 | TTCGAA | 5.32 ± 1.2 | 7.22 ± 2.3 | 10.3 ± 4.3
55 | CAAATC | 1.67 ± 0.66 | 1.44 ± 0.26 | 1.67 ± 0.54
56 | GCTCTC | 1.58 ± 1.2 | 1.69 ± 0.14 | 1.93 ± 0.024
57 | TCCCCG | 1.54 ± 1.4 | 0.526 ± 0.42 | 2.17 ± 0.62
58 | AAAACC | 1.57 ± 0.47 | 1.42 ± 0.68 | 0.978 ± 0.27
59 | GTTGCG | – | – | 0.902 ± 0.56
60 | GCCTGG | – | – | 0.776 ± 0.2
61 | AAGATG | – | – | 0.939 ± 0.44
62 | ACATTA | 1.51 ± 1.3 | 1.66 ± 0.19 | 2.74 ± 1.1
63 | CTCAAG | 2.69 ± 2 | 2.93 ± 1.3 | 4.67 ± 1.1
64 | GTGAGG | – | – | 0.834 ± 0.13
65 | CTCTTC | 3.63 ± 0.69 | 4.38 ± 0.62 | 6.47 ± 2.3
66 | TGTTAT | 3.17 ± 1.4 | 4.69 ± 0.22 | –

Row | Sequence | relative kcat/Km [1] | relative kcat/Km [2] | relative kcat/Km [3]
67 | TATGTC | 1.94 ± 0.3 | 1.75 ± 0.14 | 2.41 ± 1.1
68 | GCTCCT | 2.17 ± 1.1 | 1.31 ± 0.57 | 1.49 ± 0.12
69 | ACTGAA | 2.28 ± 0.86 | 1.83 ± 0.063 | 2.09 ± 0.12
70 | CTGTCT | 1.75 ± 0.55 | 2.12 ± 0.53 | 2.34 ± 0.71
71 | ACCACG | – | 0.663 ± 0.43 | 1.33 ± 0.36
72 | AATCCT | 1.63 ± 0.46 | 1.9 ± 0.52 | 2.2 ± 0.7
73 | ACTACC | 1.62 ± 1.1 | 0.947 ± 0.46 | 1.88 ± 0.055
74 | CAATAG | 1.79 ± 0.46 | 1.58 ± 0.064 | 2.76 ± 0.48
75 | TTGGAG | – | – | 0.381 ± 0.027
76 | GGCCGG | – | – | 0.66 ± 0.22
77 | AACTGG | – | – | 0.249 ± 0.046
78 | AGACGC | 2.54 ± 0.22 | 2.7 ± 0.34 | 4.01 ± 1.7
79 | GCCCTT | 2.48 ± 0.62 | 2.23 ± 0.29 | 4.09 ± 1.9
80 | ACAATG | – | 0.703 ± 0.44 | 2.02 ± 0.15
81 | CGCACG | 0.959 ± 0.25 | – | 1.17 ± 0.018
82 | TATAGA | 2.61 ± 0.27 | 3.82 ± 1.1 | 5.64 ± 2.4
83 | TACACT | 2.89 ± 1.3 | 4.07 ± 0.56 | 5.85 ± 2.5
84 | TCCACG | – | 1.5 ± 0.77 | 2.9 ± 0.35
85 | ACACAA | – | 1.7 ± 0.61 | 2.33 ± 0.43
86 | TACTCG | 2.29 ± 0.9 | 2.27 ± 0.61 | 3.84 ± 1.7
87 | ATGCGA | 1.3 ± 0.25 | 1.14 ± 0.72 | 1.37 ± 0.057
88 | TGTACT | 1.27 ± 0.14 | 1.61 ± 0.24 | 3.19 ± 1.3

Row | Sequence | relative kcat/Km [1] | relative kcat/Km [2] | relative kcat/Km [3]
89 | GTACGT | – | – | 1.63 ± 1.3
90 | CTGACT | – | 0.128 ± 0.089 | 0.932 ± 0.62
91 | TCTAAC | 2.88 ± 0.9 | 3.41 ± 0.69 | 3.99 ± 1.6
92 | TCGCTA | – | 1.1 ± 0.44 | 2.01 ± 0.28
93 | CCCGTC | 2.457 ± 0.0044 | 3.23 ± 1.4 | 3.92 ± 1.5
94 | CTGCGA | 1.16 ± 0.17 | 0.694 ± 0.59 | 1.64 ± 0.035
95 | GGGGAT | – | – | 1.93 ± 1.9
96 | TCGGGT | – | – | 1.52 ± 1
97 | GCTGTA | 1.96 ± 0.28 | 1.45 ± 0.33 | 1.506 ± 0.011
98 | GTTGCC | 1.67 ± 1.3 | 1.04 ± 0.19 | 2.17 ± 0.34
99 | GTCCTC | 3.46 ± 0.61 | 4.33 ± 0.75 | 6.46 ± 3
100 | ACGTTT | 2.11 ± 0.72 | 2.51 ± 0.12 | 3.26 ± 1.3
101 | CCACCC | 2 ± 0.12 | 1.27 ± 0.51 | 2.49 ± 0.73
102 | CCTAAC | 2.27 ± 0.5 | 2.19 ± 0.88 | 3.39 ± 0.99
103 | CTCCTA | 1.73 ± 0.61 | 2.53 ± 0.85 | 4.44 ± 1.4
104 | TCACTG | – | – | 1.24 ± 0.59
105 | GTAAGC | 1.54 ± 0.78 | 2.1 ± 0.22 | 2.53 ± 0.77
106 | CGAGCG | – | – | 0.514 ± 0.44
